Results as given in PubChem BioAssay AID1508623 (National Center for Advancing Translational Sciences (NCATS), 2021).
The campaign covered roughly 48,000 compounds. About 450 (0.94%) were called active. Another 19% or so got no clear call; they are omitted. The call rests on the fitted dose curve; in most records, active means well fitted inhibition curve with a large enough effect; inconclusive means small, poorly fitted or top-dose-only effect; inactive means no such curve, though single readings can be large or run the other way. The list shows a part of the results.

experiment: Primary qHTS for Identification of Small Molecule Inhibitors of Huntingtin Promoter Activity; conditions: HEK293 HTT promoter firefly luciferase reporter (activity 0% = vehicle and -100% = no light), 24 h; series mostly up to 57.5 µM; activity change, negative = inhibition: at the top concentration; further: nearly all actives have a fitted effect of over 50% in size
Method in brief: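 HEK293 Fluc reporter, 2,500 cells/well, 24 h pre-culture; cpds up to 57.5 uM final, 24 h 37 degrees C; Dual-Glo, 10 min RT; normalized vehicle = 0%, zero RLU = -100%.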
Potency means the concentration at half of the fitted maximal effect.

Compound | activity change, negative = inhibition | Potency
Cc1cccc(NC(=O)CN2C(=O)c3ccccc3Sc3ncccc32)c1C | inactive: -7.97% | –
COc1ccccc1C(=O)OCc1cc(=O)n2nc(C3CCCCC3)sc2n1 | inactive: -2.96% | –
COc1ccc(CCNC(=O)CSC2=Nc3ccccc3C3=NC(CCC(=O)NCc4ccccc4)C(=O)N23)cc1OC (configuration not stated) | inactive: -2.26% | –
Cc1noc2ncnc(N3CCCC(C(=O)NC(C)C)C3)c12 (configuration not stated) | inactive: -17.3% | –
Cc1cccc(CCNC(=O)C2CCN(c3ncnc4c3nc3n4CCCCC3)CC2)c1 | inactive: 7.31% | –
CCNC(=O)Nc1ccc(Oc2ncnc(N)c2C=NOC)cc1Cl | inactive: -5% | –
COc1ccc(NC(=O)c2ccc(NC(=O)CCS(=O)(=O)c3cccs3)cc2)cc1OC | inactive: 5.82% | –
CCCCCn1c(CCCNC(=O)c2cccc(C)c2)nc2ccccc21 | inactive: -7.94% | –
O=C(CCCCn1c(=O)c2ccccc2n(CC(=O)Nc2ccccc2)c1=O)NCc1ccccc1Cl | inactive: -1.68% | –
CCc1nnc2c3ccccc3nc(Nc3ccccc3OC)n12 | inactive: -9.82% | –
Cc1cccc(N2CCN(S(=O)(=O)c3ccc4oc(=O)c5ncn(C)c5c4c3)CC2)c1C | inactive: -10.3% | –
Cc1c(C)n(Cc2ccccc2)c2ccc(C(=O)NCc3ccc(OC(C)C)cc3)cc12 | inactive: -15.6% | –
CCN(CC)CCCNC(=O)C1CCN(S(C)(=O)=O)CC1 | inactive: -11.6% | –
CCOC(=O)c1sc(NC(=O)C(C)Sc2nc(-c3ccccc3)cc(C(F)(F)F)n2)c(C(=O)OC)c1C (configuration not stated) | inactive: 4.9% | –
CCOc1ccc(C(=O)Nc2ccc(-c3nc4cc(C)ccc4o3)cc2)cc1 | inactive: 31.5% | –
Cc1oc(-c2ccc(C(=O)Nc3cccc(C(F)(F)F)c3)cc2)nc1CSc1ccccc1 | – | active: 1780 nM
COc1ccc(Nc2nc3ccc(Cl)cc3n3nnnc23)cc1OC | inactive: -13.1% | –
COc1ccc(-c2nc3scc(CCNS(=O)(=O)c4ccc(F)c(C(F)(F)F)c4)n3n2)cc1OC | inactive: -19.2% | –
O=C(Oc1ccccc1Cl)c1cc(-c2ccc3c(c2)OCCO3)on1 | inactive: 35.3% | –
CCN1CCN(c2cc(C)c3cc(NC(=O)c4cccc(Cl)c4)ccc3n2)CC1 | inactive: 35.3% | –
Cc1ccc(NC(=O)c2cnc(N3CCCCC3)c3ccccc23)cc1Cl | inactive: -19.3% | –
Cc1n[nH]c(C)c1CCc1nc2c3ccccc3nc(SCC(=O)Nc3ccc(F)cc3)n2n1 | inactive: -5.3% | –
COC(=O)c1scc(-c2ccc(C)cc2)c1S(=O)(=O)Nc1cccc(Cl)c1C | inactive: -18.8% | –
Cc1ccc(CNC(=O)Cn2cc(S(=O)(=O)Cc3cccc(Cl)c3)c3ccccc32)cc1 | inactive: -18.8% | –
COc1ccc(-c2nc3nc(C)cc(Nc4cccc(C(F)(F)F)c4)n3n2)cc1 | inactive: 1.89% | –

Compound | activity change, negative = inhibition | Potency
COc1ccc(NC(=O)COc2ccc(S(=O)(=O)NC3CCCCC3)cc2)c(OC)c1 | inactive: -12.3% | –
O=C(CCCc1nc(-c2ccccc2)no1)Nc1cc(C(F)(F)F)cc(C(F)(F)F)c1 | inactive: -22.7% | –
O=C(Nc1nnc(S(=O)(=O)N2CCCCC2)s1)c1ccc(F)cc1 | inactive: -8.56% | –
Cc1cc(C)c(Cn2c3ccccc3c3cnn(CC(=O)NCc4ccc(Cl)cc4)c(=O)c32)c(C)c1 | inactive: -18.8% | –
CC1=C(C(=O)Nc2ccccc2C)C(c2ccco2)n2ncnc2N1 (configuration not stated) | inactive: -3.62% | –
Cc1noc(Cn2c(=O)c3ccccc3n(CC(=O)Nc3ccc(F)cc3F)c2=O)n1 | inactive: -2.87% | –
O=C(CN(c1cc(C(F)(F)F)ccc1Cl)S(=O)(=O)c1ccccc1)NCCc1ccccc1 | inactive: -8.36% | –
COc1ccc(-c2c(C#N)c(SCC(=O)Nc3ccc(Br)cc3)nc(C)c2C(=O)Nc2ccccc2)cc1 | inactive: 11% | –
CCOc1ccc(CCNC(=O)c2ccc3c(c2)N(Cc2ccccc2)C(=O)c2ccccc2S3=O)cc1OCC (configuration not stated) | inactive: -14.9% | –
COC(=O)c1ccccc1NC(=O)c1cc2c(s1)-c1ccccc1OC2 | inactive: -19.2% | –
O=C(CSc1nc(-c2ccccc2)c2ccccc2n1)Nc1ccc(F)cc1 | inactive: 2.59% | –
OC(CN1CCN(c2cccc(Cl)c2)CC1)C(c1ccccc1)c1ccccc1 (configuration not stated) | inactive: -11.8% | –
Cc1cc(C)c(S(=O)(=O)NCCc2cc3ccc(C)cc3[nH]c2=O)c(C)c1 | inactive: -23.6% | –
CC1=C(C(=O)N2CCCCC2)C(c2cccc(Cl)c2)n2c(nc3ccccc32)N1 (configuration not stated) | inactive: -7.27% | –
Cc1ccc(C)c(N2CCN(C(=O)CN3C(=O)COc4ccc(S(=O)(=O)N5CCC(C)CC5)cc43)CC2)c1 | inactive: -17.5% | –
COc1ccc(NC(=O)c2c(C)oc3ccc(O)c(CN4CCCCCC4)c23)cc1 | inactive: -7.6% | –
Cc1ccc(N2CCN(S(=O)(=O)c3ccc(-n4cnnn4)cc3)CC2)c(C)c1 | inactive: -1.85% | –
O=c1[nH]c(=O)n([C@H]2C[C@H](O)[C@@H](CO)O2)cc1Br | inactive: 15.3% | –
Cc1[nH]cnc1-c1ccc(Cl)cc1 | inactive: 5.52% | –
Cc1ccc(Cl)cc1N1CCN(C(=O)c2ccc3c(c2)N(Cc2ccccc2)CCS3)CC1 | inactive: -7.16% | –
CCn1nnc2cc(C(=O)Nc3ccc(OC)cc3)ccc21 | inactive: 71.9% | –
COc1ccc(CCNC(=O)c2cc(=O)[nH]c3ccc(S(=O)(=O)N4CCCCC4C)cc23)cc1OC (configuration not stated) | inactive: -31.4% | –
Cc1cn2c(=O)cc(COC(=O)c3ccc(NC(=O)C(C)Oc4ccccc4)cc3)nc2s1 (configuration not stated) | inactive: -13.2% | –
CCOCCCNC(=O)c1c(NC(=O)c2nc(SC)ncc2Cl)sc2c1CCCC2 | inactive: -7.61% | –
COc1ccc(OC)c(NC(=O)CCNC(=O)Cn2cnc3ccccc3c2=O)c1 | inactive: -12% [at 11.5 µM] | –

Compound | activity change, negative = inhibition | Potency
Fc1ccc(Nc2c(-c3ccccn3)nc3ccc(Cl)cn23)cc1 | inactive: 2.83% | –
O=C(NCCc1ccccc1)c1nn(-c2ccccc2Cl)nc1CO | inactive: -25.2% | –
COc1cccc(NC(=O)Cc2csc(COc3cccc(C)c3)n2)c1 | inactive: -6.12% | –
CCCCC1(COC(=O)CCC(=O)O)C(=O)N(c2ccccc2)N(c2ccccc2)C1=O | inactive: 0.16% | –
COCCn1c(C)cc(O)c(C(c2ccc(OC)cc2)N2CCN(c3ccccc3)CC2)c1=O (configuration not stated) | inactive: -17.8% | –
Cc1cc(C)cc(NC(=O)COCc2cc(-c3ccc4c(c3)OCO4)on2)c1 | inactive: -4.11% | –
CC1CCCCN1C(=O)CSc1c2c(nc3cc(Cl)ccc13)CCCC2 (configuration not stated) | inactive: -8.21% | –
COc1cccc(N2CCN(C(=O)C3CCN(S(=O)(=O)c4cn(C)cn4)CC3)CC2)c1 | inactive: -9.77% | –
CCOCCn1c(=O)c2c(nc3n2CCN3c2ccc(C)c(C)c2)n(C)c1=O | inactive: -2.59% | –
NS(=O)(=O)c1ccc(NC(=O)c2csnn2)cc1 | inactive: -7.39% | –
COc1ccc(NC(=O)CN(C)S(=O)(=O)c2ccc3c(c2)c(=O)n(C)c(=O)n3C)cc1 | inactive: -13.6% | –
COc1ccc(-c2nc3ccc(Cl)cn3c2Nc2ccc(C)cc2)cc1 | inactive: 4.57% | –
COc1ccc(OCC2c3cc(OC)c(OC)cc3CCN2C(=O)c2c(F)cccc2F)cc1 (configuration not stated) | inactive: -24.7% | –
Cc1ccc(C(=O)NCC(c2ccco2)S(=O)(=O)c2ccc(Cl)cc2)cc1C (configuration not stated) | inactive: -35% | –
CCCCNC(=O)c1cn(C)c2ccc(S(=O)(=O)N3CCCC3)cc2c1=O | inactive: -2.31% | –
CCc1ccc(-n2nc(CO)c(C(=O)NCc3cccs3)n2)cc1 | inactive: -0.45% | –
O=C(CSc1nc(=O)n(Cc2ccco2)c2c1CCC2)NCc1ccc(Cl)cc1 | inactive: -11.5% | –
Cc1ccc(NC(=O)CCn2c(=O)c3cccn3c3ccccc32)cc1Cl | inactive: -24.6% | –
COc1cc(OC)c(NC(=O)Cn2cnc3sc(C)c(S(=O)(=O)N4CCC(C)CC4)c3c2=O)cc1Cl | inactive: -10.6% | –
COc1ccc(N2CC(NC(=O)C(=O)c3c(C)[nH]c4ccccc34)CC2=O)cc1 (configuration not stated) | inactive: -11.9% | –
Cc1cc(C)n(-c2nc3ccccc3nc2Nc2cc(Cl)ccc2C)n1 | inactive: -1.73% | –
Cc1cc(C)c2nc(N(Cc3cccnc3)C(=O)Cc3ccccc3)sc2c1 | inactive: -15.5% | –
Cc1cc(NC(=O)Nc2nnc(N3CCCCC3)s2)ccc1Br | inactive: 1.12% | –
COc1ccccc1CNC(=O)CSc1nc(=O)[nH]c2c1CCCC2 | inactive: -6.8% | –
CCCCCn1c(=O)[nH]c2cc(C(=O)NC(C)CC)ccc2c1=O (configuration not stated) | inactive: -4.13% | –

Compound | activity change, negative = inhibition | Potency
CCOc1ccc(CNC(=O)c2ccc3c(c2)nc2n3CCCCC2)cc1 | inactive: 46.1% | –
COCCn1c(=O)[nH]c2cc(C(=O)Nc3ccc(OC)cc3)ccc2c1=O | inactive: -8.85% | –
Cc1ccc2c(c1)cc(C(=O)NCc1ccccc1C)n2C | inactive: -23.3% | –
CCc1cnc2c(c1SCC(=O)Nc1ccc(C(=O)OC)cc1)c(=O)n(C)c(=O)n2C | inactive: -6.23% | –
CC(C)Oc1ccc(CNC(=O)C2CCN(Cc3cc4ccccc4n3Cc3ccccc3)CC2)cc1 | inactive: -26.6% | –
CC(C)(C)c1ccc(OCCOCCn2c(-c3ccc(Cl)cc3)nc3ccccc3c2=O)cc1 | inactive: -3.91% | –
CCn1c2ccccc2c2cc(NC(=O)COc3cc(C)ccc3C)ccc21 | inactive: -16.4% | –
Cc1cccc(Cn2c(COc3ccccc3)nc3ccccc32)c1 | inactive: -10.1% | –
O=C(/C=C/c1ccccc1)Nc1nc2n(n1)C(c1ccc(F)cc1)C=C(c1ccccc1)N2 (configuration not stated) | inactive: -41.1% | –
CCOC(=O)CNC(=O)c1cc2c(=O)n3cccc(C)c3nc2n1C | inactive: -6.89% | –
CC(=O)CC/C=C(\C)CC/C=C(\C)CC/C=C(\C)CCC=C(C)C | inactive: -1.24% | –
COc1ccc(NC(=O)c2nc(-c3ccc(C)cc3)n3c2CCCCC3)c(OC)c1 | inactive: 9.23% | –
CCOCCc1nn2c(=O)cc(COC(=O)c3ccc(NC(=O)C(C)(C)C)cc3)nc2s1 | inactive: -38% | –
Cc1cc2oc(C(=O)N(Cc3ccco3)Cc3ccccc3Cl)c(C)c2cc1C | inactive: -13.4% | –
Cc1ccc(SCC(=O)Nc2ccc3oc(-c4ccccc4F)nc3c2)cc1 | inactive: 0% | –
CCOC(=O)c1ccccc1NC(=O)c1cnc(N2CCOCC2)c2ccccc12 | inactive: -8.61% | –
Cc1nn(C)c(C)c1CCNC(=O)Nc1ccccc1C(F)(F)F | inactive: -16.8% | –
COc1ccc(N2CC(NC(=O)/C=C\c3ccccc3)CC2=O)cc1OC (configuration not stated) | inactive: 2.02% | –
CCN(CC)c1nn2c(=O)c(C(=O)NCc3ccc(N(C)C)cc3)cnc2s1 | inactive: 5.8% | –
CCC(=O)N1CCc2cc(S(=O)(=O)NC(C(=O)NCCc3cccc(C)c3)C(C)C)ccc21 (configuration not stated) | inactive: -3.04% | –
CN(Cc1ccco1)S(=O)(=O)c1nnc(NC(=O)c2ccccc2Cl)s1 | inactive: -8.27% | –
O=C(NCc1cccs1)c1ccc(CSc2nc3ccncc3n2Cc2ccccc2F)cc1 | inactive: 12.1% | –
